# Test results as given in the supplement of paper PMC8728848.
# The list shows a part of the results.
# B1: PX9961X-pdi-531-24-531 (Parabacteroides distasonis) (protein)
# chain: DLTEEIHSSVIAENYYNNAGEVMAAMMRPWGHFCGTMQVAQSPWSCNELSSDCAAWPQKGRHGYDNGDWIRLHRHQWIPTDGQVVDAWKKLFEGIGYANNFLTDTENIDFEALQVPMSKAQAQAEMRVYRAYCYWYVMDMFGTAPICEKIGEINPSSKSRAELFAWIEKELNESIPSLSESKTETYGRVSKWGAYALLARLYLNAEIYTGQARWDDCIAACDELAKGGFALDKKWNDTFRADNDKRSTEIIWSIVYDEVYAKGMGWYQRWLHYAHQTGWDLQSGPWNGLVTQPTFYDSFADNDLRKIEGFLIGKQYPRKVDENGNYYYDTTAEPLKGSEEYNGQDLVFVNYIKSMTEGEENSGARSIKYEIQPGTTGDMNNDWVMFRYSEVIYNKAEALMRKNGGKATQEVVDMINSVRQRSFKAEDWEKAKYTTATLTMDEFLAEKGREFAFEGIRRTDLVRFNKFVTTSWWDKTASNEPKRNIFPIPQRQLDANANLSPNEANSLF
# What was measured:
# Assay in all cases: glycan array binding signal (z-score within array); higher = stronger binding
# Details in all cases: glycan notation: IUPAC condensed, linker removed
# [1] = target: Fuc(a1-2)Gal
# Summary of the method: (§1)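 Negative Z-scores can be read as non-binding. The Z-score is calculated within each array and then averaged across arrays of one protein sequence at different concentrations or buffers and across linkers. Arrays, 3228 in all, were curated from the Consortium for Functional Glycomics database and kept only where the protein sequence was available.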
# [2] = target: Fuc(a1-2)Gal(b1-3)GalNAc
# Summary of the method: as §1
# [3] = target: Fuc(a1-2)Gal(b1-3)GalNAc(a1-3)[Fuc(a1-2)]Gal(b1-4)Glc
# Summary of the method: as §1
# [4] = target: Fuc(a1-2)Gal(b1-3)GalNAc(a1-3)[Fuc(a1-2)]Gal(b1-4)GlcNAc
# Summary of the method: as §1
# [5] = target: Fuc(a1-2)Gal(b1-3)GalNAc(b1-3)Gal
# Summary of the method: as §1
# [6] = target: Fuc(a1-2)Gal(b1-3)GalNAc(b1-3)Gal(a1-4)Gal(b1-4)Glc
# Summary of the method: as §1
# [7] = target: Fuc(a1-2)Gal(b1-3)GalNAc(b1-4)[Neu5Ac(a2-3)]Gal(b1-4)Glc
# Summary of the method: as §1
# [8] = target: Fuc(a1-2)Gal(b1-3)GlcNAc
# Summary of the method: as §1
# [9] = target: Fuc(a1-2)Gal(b1-3)GlcNAc(b1-2)Man(a1-3)[Fuc(a1-2)Gal(b1-3)GlcNAc(b1-2)Man(a1-6)]Man(b1-4)GlcNAc(b1-4)GlcNAc
# Summary of the method: as §1
# [10] = target: Fuc(a1-2)Gal(b1-3)GlcNAc(b1-2)Man(a1-3)[Fuc(a1-2)Gal(b1-3)GlcNAc(b1-2)Man(a1-6)]Man(b1-4)GlcNAc(b1-4)[Fuc(a1-6)]GlcNAc
# Summary of the method: as §1
# [11] = target: Fuc(a1-2)Gal(b1-3)GlcNAc(b1-3)Gal(b1-4)Glc
# Summary of the method: as §1
# [12] = target: Fuc(a1-2)Gal(b1-3)GlcNAc(b1-3)GalNAc
# Summary of the method: as §1
# [13] = target: Fuc(a1-2)Gal(b1-3)GlcNAc(b1-3)[Fuc(a1-2)Gal(b1-3)GlcNAc(b1-6)]GalNAc
# Summary of the method: as §1
# [14] = target: Fuc(a1-2)Gal(b1-3)GlcNAc(b1-3)[Gal(b1-4)GlcNAc(b1-6)]Gal(b1-4)Glc
# Summary of the method: as §1
# [15] = target: Fuc(a1-2)Gal(b1-3)GlcNAc(b1-3)[Neu5Ac(a2-6)Gal(b1-4)GlcNAc(b1-6)]Gal(b1-4)Glc
# Summary of the method: as §1
# [16] = target: Fuc(a1-2)Gal(b1-3)GlcNAc6S
# Summary of the method: as §1
# [17] = target: Fuc(a1-2)Gal(b1-3)[Fuc(a1-4)]GlcNAc
# Summary of the method: as §1
# [18] = target: Fuc(a1-2)Gal(b1-3)[Fuc(a1-4)]GlcNAc(b1-2)Man(a1-3)[Fuc(a1-2)Gal(b1-3)[Fuc(a1-4)]GlcNAc(b1-2)Man(a1-3)]Man(b1-4)GlcNAc(b1-4)GlcNAc
# Summary of the method: as §1
# [19] = target: Fuc(a1-2)Gal(b1-3)[Fuc(a1-4)]GlcNAc(b1-2)Man(a1-3)[Fuc(a1-2)Gal(b1-3)[Fuc(a1-4)]GlcNAc(b1-2)Man(a1-6)]Man(b1-4)GlcNAc(b1-4)[Fuc(a1-6)]GlcNAc(b1-4)[Fuc(a1-6)]GlcNAc
# Summary of the method: as §1
# [20] = target: Fuc(a1-2)Gal(b1-3)[Fuc(a1-4)]GlcNAc(b1-3)[Fuc(a1-3)[Gal(b1-4)]GlcNAc(b1-6)]Gal(b1-4)Glc
# Summary of the method: as §1
# [21] = target: Fuc(a1-2)Gal(b1-3)[Fuc(a1-4)]GlcNAc(b1-3)[Gal(b1-4)GlcNAc(b1-6)]Gal(b1-4)Glc
# Summary of the method: as §1
# [22] = target: Fuc(a1-2)Gal(b1-4)Glc
# Summary of the method: as §1
# [23] = target: Fuc(a1-2)Gal(b1-4)Glc6S
# Summary of the method: as §1
# [24] = target: Fuc(a1-2)Gal(b1-4)GlcNAc
# Summary of the method: as §1
# [25] = target: Fuc(a1-2)Gal(b1-4)GlcNAc(b1-2)Man
# Summary of the method: as §1
# [26] = target: Fuc(a1-2)Gal(b1-4)GlcNAc(b1-2)Man(a1-3)[Fuc(a1-2)Gal(b1-4)GlcNAc(b1-2)Man(a1-6)]Man(b1-4)GlcNAc(b1-4)GlcNAc
# Summary of the method: as §1
# [27] = target: Fuc(a1-2)Gal(b1-4)GlcNAc(b1-2)Man(a1-3)[Fuc(a1-2)Gal(b1-4)GlcNAc(b1-2)Man(a1-6)]Man(b1-4)GlcNAc(b1-4)[Fuc(a1-6)]GlcNAc
# Summary of the method: as §1
# [28] = target: Fuc(a1-2)Gal(b1-4)GlcNAc(b1-2)[Fuc(a1-2)Gal(b1-4)GlcNAc(b1-4)]Man(a1-3)[Fuc(a1-2)Gal(b1-4)GlcNAc(b1-2)Man(a1-6)]Man(b1-4)GlcNAc(b1-4)GlcNAc
# Summary of the method: as §1
# [29] = target: Fuc(a1-2)Gal(b1-4)GlcNAc(b1-3)Gal(b1-4)GlcNAc
# Summary of the method: as §1
# [30] = target: Fuc(a1-2)Gal(b1-4)GlcNAc(b1-3)Gal(b1-4)GlcNAc(b1-2)Man(a1-3)[Fuc(a1-2)Gal(b1-4)GlcNAc(b1-3)Gal(b1-4)GlcNAc(b1-2)Man(a1-6)]Man(b1-4)GlcNAc(b1-4)GlcNAc
# Summary of the method: as §1
binder,measurement,setting,value
B1,glycan array binding signal (z-score),[1],-0.236
same,glycan array binding signal (z-score),[2],-0.286
same,glycan array binding signal (z-score),[3],-0.204
same,glycan array binding signal (z-score),[4],0.763
same,glycan array binding signal (z-score),[5],0.258
same,glycan array binding signal (z-score),[6],-0.522
same,glycan array binding signal (z-score),[7],-0.435
same,glycan array binding signal (z-score),[8],-0.496
same,glycan array binding signal (z-score),[9],0.611
same,glycan array binding signal (z-score),[10],-0.139
same,glycan array binding signal (z-score),[11],0.003
same,glycan array binding signal (z-score),[12],-0.17
same,glycan array binding signal (z-score),[13],0.427
same,glycan array binding signal (z-score),[14],-0.824
same,glycan array binding signal (z-score),[15],-0.479
same,glycan array binding signal (z-score),[16],-0.443
same,glycan array binding signal (z-score),[17],-0.944
same,glycan array binding signal (z-score),[18],0.026
same,glycan array binding signal (z-score),[19],-0.23
same,glycan array binding signal (z-score),[20],-0.666
same,glycan array binding signal (z-score),[21],-0.572
same,glycan array binding signal (z-score),[22],0.128
same,glycan array binding signal (z-score),[23],-0.94
same,glycan array binding signal (z-score),[24],-0.444
same,glycan array binding signal (z-score),[25],0.292
same,glycan array binding signal (z-score),[26],1.28
same,glycan array binding signal (z-score),[27],-0.118
same,glycan array binding signal (z-score),[28],-0.004
same,glycan array binding signal (z-score),[29],0.123
same,glycan array binding signal (z-score),[30],1.07
